Measurements: PubChem BioAssay AID686979 (National Center for Advancing Translational Sciences (NCATS), 2013)
Screen size: about 420,000 compounds; about 50,000 (12%) were called active. The shares of active, inactive and inconclusive entries below differ from those in the screen. The call rests on the fitted dose curve; in most records, active means well fitted inhibition curve with a large enough effect; inconclusive means small, poorly fitted or top-dose-only effect; inactive means flat fitted curve, though single readings scatter. No potency is given beside an inconclusive call; the fits are too rough.

assay: qHTS for Inhibitors of human tyrosyl-DNA phosphodiesterase 1 (TDP1): qHTS in cells in presence of CPT; settings: chicken DT40 Tdp1-/-;hTDP1 cells + 20 nM CPT, ATP luminescence, 48 h; activity change, negative = growth inhibition: at 46.2 µM (top of the series) unless noted; further: nearly all actives have a fitted effect of over 55% in size
Method in brief: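 Chicken DT40 Tdp1-/- cells stably complemented with human TDP1 were seeded at 400 cells/well in medium containing 20 nM camptothecin, exposed to pin-transferred compounds, and grown at 37 °C for at least 48 hr. Viability was read as ATP luminescence.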
On the % scale 0 is the no-effect control and ±100 the full control effect; potency means the concentration at half of the fitted maximal effect; tags describe the fitted curve by direction and shape.

Row | Compound | Potency | activity change, negative = growth inhibition
1 | COc1ccc(NC(=O)CSc2nnc(C3CCCCC3)o2)c(OC)c1 | inconclusive [inhibitor, full curve] | 
2 | Cc1nnc(Sc2cc(C(=O)NC3CC3)c3ccccc3n2)s1 | inconclusive [inhibitor, partial curve] | 
3 | CN(CC(=O)Nc1ccc(F)c(F)c1)S(=O)(=O)c1cccc2nsnc12 |  | inconclusive: -36.1% [inhibitor]
4 | CC(C)c1ccc(OCC(=O)Nc2cc(-c3ccccc3)no2)cc1 | inactive | 
5 | CCCCN(CC)CCNC(=O)c1cc2cc3ccc(Cl)cc3nc2o1 | active: 16.4 µM | 
6 | CCN(CC)C(=O)CSc1nc2cc3c(cc2c(=O)n1CCCC(=O)NCCc1ccc(OC)c(OC)c1)OCO3 | inconclusive [inhibitor, single point] | 
7 | COC(=O)C1=C(COc2ccc(C=O)cc2OC)NC(=O)NC1c1cc(C)ccc1C (stereo not given) | inconclusive [inhibitor, single point] | 
8 | Cc1ccc(N(CC(=O)NC(C)C)C(=O)CCC(=O)Nc2nccs2)cc1 |  | inconclusive: 0.296% [inhibitor]
9 | Brc1cccc(-c2n[nH]c(-c3ccccc3)n2)c1 | inconclusive [inhibitor, single point] | 
10 | O=C(Nc1nccs1)c1ccccn1 | inconclusive [inhibitor, single point] | 
11 | COc1ccc(NS(=O)(=O)c2cccc(NC(=O)NCCCl)c2)cc1 | inactive | 
12 | CC(=O)c1c(C)n(S(=O)(=O)c2ccc(Cl)cc2)c2ccc(NS(=O)(=O)c3ccc(Cl)cc3)cc12 | active: 10.3 µM | 
13 | CC(=O)NC1C(=O)N(C)c2ccc(Br)cc21 (stereo not given) | inactive | 
14 | c1csc(-c2nc(-c3ccncc3)no2)c1 | inactive | 
15 | COc1cc(CN(C(=O)c2ccccc2Br)c2ccccn2)cc(OC)c1OC | active: 18.4 µM | 
16 | CC(C)(C)n1nc2c(c1NC(=O)c1ccccc1S(=O)(=O)C(F)F)CS(=O)(=O)C2 | inactive | 
17 | CC(=O)Nc1ccc(S(=O)(=O)N2CCN(c3nc(NC4CCCC4)c4ccccc4n3)CC2)cc1 | inconclusive [inhibitor, single point] | 
18 | CCN(CC)CCNC(=O)c1ccc(NC(=O)Cc2ccccc2F)cc1 | inactive | 
19 | CC1(C)SC(=Nc2ccccc2)N(S(=O)(=O)c2ccccc2)C1=O | inconclusive [inhibitor, single point] | 
20 | COc1ccc(-n2c(NC(=O)c3ccco3)c(C#N)c3nc4ccccc4nc32)cc1 | active: 16.4 µM | 
21 | Cc1ccc2cc(CN(CCN3CCOCC3)Cc3nnnn3Cc3ccco3)c(=O)[nH]c2c1C |  | inconclusive: -33.1% [inhibitor]
22 | CNc1c(NS(=O)(=O)c2ccc(F)c(Cl)c2)c(=O)oc2ccccc12 | inconclusive [inhibitor, single point] | 
23 | COc1ccc([N+](=O)[O-])cc1N(CC(=O)Nc1ccccc1C(=O)NC(C)C)S(C)(=O)=O | inactive | 
24 | O=C(N/N=C/c1ccccc1[N+](=O)[O-])c1ccncc1 | inactive | 
25 | C=CCn1c(SCC(=O)NCC2CCCO2)nc2sc(CC)cc2c1=O (stereo not given) | inconclusive [inhibitor, single point] | 

Row | Compound | Potency | activity change, negative = growth inhibition
26 | CC1(c2ccccc2)NC(=O)N(CC(=O)N2CCc3ccccc32)C1=O (stereo not given) | inactive | 
27 | O=C(NCc1cc2ccccc2[nH]1)C1CCC(=O)N(CC2CCCCC2)C1 (stereo not given) | inconclusive [inhibitor, single point] | 
28 | O=C(CSc1nc(-c2ccco2)cc(C(F)(F)F)n1)Nc1ccc(C(=O)N2CCCCC2)cc1 | active: 7.31 µM | 
29 | Cc1ccc(C(=O)N2CCN(Cc3ccc4c(c3)OCO4)CC2)c(Cl)c1 | active: 8.2 µM | 
30 | C/C(=N\OCC(=O)NCC(F)(F)F)c1cc2ccccc2o1 |  | inconclusive: -32.1% [inhibitor]
31 | CCc1ccc(NC(=O)c2cccc(N3CCCS3(=O)=O)c2)cc1 | inconclusive [inhibitor, single point] | 
32 | COc1ccc(CCNC(=O)Cc2ccc(OCc3ccccc3)c(OC)c2[N+](=O)[O-])cc1OCc1ccccc1 | active: 23.1 µM | 
33 | CCOc1ccc(NC(=O)CSc2nncc(=O)n2N)cc1 | inactive | 
34 | CCN(CC)C(=O)c1sc2c(c1C)c(=O)n(CCc1ccccc1)c(=O)n2Cc1ccc(C)cc1 | active: 20.6 µM | 
35 | CN(C)C(=O)CSc1nnc(NC(=O)CCc2ccccc2)s1 | inactive | 
36 | Cc1ccc(/C=C/C(=O)NC(=S)N2CCN(c3ccc(F)cc3)CC2)cc1 | inactive | 
37 | Cc1nc(N2CCC(C)CC2)c2c(C)c(C(=O)Nc3cccc(C(F)(F)F)c3)sc2n1 | inconclusive [inhibitor, single point] | 
38 | CCOc1cc2c(cc1OCC)C(CC(=O)OC)N(C(=O)Nc1cc(OC)ccc1OC)CC2 (stereo not given) | active: 20.6 µM | 
39 | COc1ccc(/C=C2\C(=O)NCC(=O)N2C)cc1 | inconclusive [inhibitor, full curve, poor fit] | 
40 | CC(C(=O)NC1CCCc2ccccc21)N1CCN(c2ccc(F)cc2)CC1 (stereo not given) | inconclusive [inhibitor, single point] | 
41 | COc1ccc(C(CNC(=O)c2cccc(NC(=O)c3cccs3)c2)N2CCCC2)cc1 (stereo not given) | inconclusive [inhibitor, single point] | 
42 | COc1ccc(-n2ncc3c(NCc4cccs4)ncnc32)cc1 | inactive | 
43 | C=CCCCN(Cc1ccccc1)S(=O)(=O)c1ccccc1Br | inconclusive [inhibitor, partial curve, poor fit] | 
44 | COc1cc(C(C[N+](=O)[O-])c2c(C)[nH]c3ccccc23)cc(OC)c1OC (stereo not given) | inconclusive [inhibitor, single point] | 
45 | O=C(Nc1cccc(OC(=O)c2cccnc2)c1)c1cccnc1 | active: 10.3 µM | 
46 | CC(C)CC(NC(=O)C1CCC(C)CC1)C(=O)N1CCN(c2ccccn2)CC1 (stereo not given) | active: 16.4 µM | 
47 | O=[N+]([O-])c1cccc(S(=O)(=O)Nc2nc3ccccc3nc2Nc2cccc(S(=O)(=O)N3CCCCC3)c2)c1 | inconclusive [inhibitor, single point] | 
48 | O=C(Nc1ccccc1)Nc1ccc(-n2ccc(C(F)(F)F)n2)cc1 | inconclusive [inhibitor, single point] | 
49 | CN(Cc1ccco1)c1nc(-c2cccnc2)nc2ccccc12 | inconclusive [inhibitor, single point] | 
50 | CC(CCc1ccccn1)(CCc1ccccn1)C(=O)c1ccccc1 | inconclusive [inhibitor, single point] | 

Row | Compound | Potency | activity change, negative = growth inhibition
51 | CCOC(=O)c1sc(NC(=S)NC(=O)c2ccccc2Cl)c(C(=O)OCC)c1C | inconclusive [inhibitor, partial curve] | 
52 | COc1ccccc1NC(=O)c1cccc2c(Br)cccc12 | inactive | 
53 | Cc1cc(O)ccc1N=Cc1c(C(F)(F)F)[nH][nH]c1=O | active: 23.1 µM | 
54 | Cc1nnn(C23CC4CC(CC(C4)C2)C3)n1 | inactive | 
55 | CC(C)Oc1ccc(S(=O)(=O)N2CCOCC2)cc1NC(=O)Cc1c(F)cccc1Cl | inconclusive [inhibitor, single point] | 
56 | Cn1c(C(C#N)C(=O)Cc2cccc3ccccc23)nc2ccccc21 (stereo not given) | inconclusive [inhibitor, single point] | 
57 | Cc1ccc(C)c(-c2nnc(NC(=O)COc3ccccc3)o2)c1 | inconclusive [inhibitor, single point] | 
58 | CC1(CC(=O)N/N=C/c2cc(Br)c(O)cc2O)OCCO1 | inconclusive [inhibitor, single point] | 
59 | O=S(=O)(NCCSc1ccccn1)c1ccc(Br)cc1 | inactive | 
60 | COCCCN=C1NN=C(c2cc(C)n(Cc3ccccc3Cl)c2C)CS1 | inconclusive [inhibitor, full curve, poor fit] | 
61 | COCc1nnc(NC(=O)CS(=O)(=O)c2ccc(C)cc2)s1 | inactive | 
62 | COCCCn1c(SCC(=O)NC2CCCC2)nnc1-c1ccco1 | inactive | 
63 | CCN(CC)C(=O)CSC(Nc1cccc(F)c1)=C(C#N)C#N | inconclusive [inhibitor, single point] | 
64 | Cc1ccc(/C=N/NC(=O)CSc2nnc(-c3ccc(Cl)cc3)n2-c2ccc(Cl)cc2)o1 | active: 23.1 µM | 
65 | C(=N\N=C\c1ccccn1)/c1ccccn1 | inactive | 
66 | Nc1ccc2c3c(cccc13)CC2 | inactive | 
67 | CC(C)c1c(C(=O)NCC2(N3CCCCC3)CCCC2)cnn1-c1nccc(-c2ccco2)n1 |  | inactive: 10.9% [at 9.04 µM]
68 | COc1cc(/C=C/C(=O)NCc2ccccn2)cc(OC)c1OC | inactive | 
69 | Cc1cc2nc(N3CCC(NC(C)c4nc(-c5ccccn5)no4)CC3)nc(C)c2cc1C (stereo not given) | inconclusive [inhibitor, single point] | 
70 | CC(C)n1cc([C@@H]2C[C@H]3CN(Cc4cccc(Cl)c4)C(=O)[C@]34CCCN24)cn1 | inactive | 
71 | NC(=S)N/N=C/c1ccc(-c2cc(Cl)ccc2Cl)o1 | active: 2.59 µM | 
72 | Cc1ccc(CNC(=O)CCSCc2cnn(-c3ccccc3)c2-n2cccc2)cc1 | active: 18.4 µM | 
73 | COc1ccccc1NC(=O)/C=C\c1ccco1 | inconclusive [inhibitor, single point] | 
74 | CC(OC(=O)CCCN=C1NS(=O)(=O)c2ccccc21)C(=O)Nc1ccccc1[N+](=O)[O-] (stereo not given) | inconclusive [inhibitor, partial curve] | 
75 | CCNC(=S)N/N=C(\C)c1ccc2c(c1)OCCO2 | inconclusive [inhibitor, single point] | 
